The source gives no read counts; variants with many changes may rest on few reads.
B1: OR4K15 (parent)
chain: GUUAACGGUCAUAGGCCAUGGAAACUAGGAGCACCAUUUCGCUGCCAGUGAAGAAAUGAACAAAGAAAAUCUGGGCCAGGCAGGCAUCAAAAGAAAUAGUCUUGCGCUCAACCAGAAAGUCUGUAAUCAUUUUAAGGGUA

Variants of: B1
Assay: self-cleavage, relative activity (ratio to wild type); higher = more cleavage; in vitro, sequencing; the parent is a self-cleaving ribozyme

Q: With GUUAACGGUCGUAGGCCAUGGAAACUAGGAGCACCAUUUCGCUGCCAGUGAAGAAAUGAACAAAGAGAAUCUGGGCCAGGCAGGCAUCGAAAGAAAUAGUCUUGCGCUCAACCAGAAAGUCUGUAAUCAUUUUAAGGGUA [A11G A67G A89G] as the variant, how does the self-cleavage read?
A: The self-cleavage was 0.82.

Q: With GUUAACGGUCGUAGGCCAUGGAAACUAGGAGCACCAUUUCGCUGCCAGUGAAGAAAUGAACAAAGAAAAUCUGGGCCUGGCAGGCAUCCAAAGAAAUAGUCUUGCGCUCAACCAGAAAGUCUGCAAUCAUUUUAAGGGUA [A11G A78U A89C U124C] as the variant, how does the self-cleavage read?
A: Its self-cleavage is 0.12.

Q: Which self-cleavage does the source give for GUUAACGGUCGUAGGCCAUGGAAACUAGGAGCACCAUUUCGCUGCCAGUGAAGAAAUGAACAAAGAAGGUCUGGGCCAGGCAGGCAUCAAAAGAAAUAGUCUUGCGCUCAACCAGAAAGCCUGUAACCAUUUUAAGGGUA [A11G A68G A69G U120C U127C] here?
A: The self-cleavage was 0.1.

Q: Which self-cleavage does the source give for GUUAACGGUCGUAGGCCAUGGAAACUAGGAGCACCAUUUCGCUGCCAGUGAAGAAAUGAACAAAGAAAAUCUGGGCCGGGCAGGCAUCAAAAGAAAUAGUCUUGCGCUCAACCAGAGAGUCUGUAAUCAUUUUAAGGGCA [A11G A78G A117G U139C] here?
A: The self-cleavage was 0.13.

Q: Which self-cleavage does the source give for GUUAACGGUCGUAGGCCAUGGAAACUAGGAGCACCAUUUCGCUGCCAGUGAAGAAAUGAACAAAGAAAAUCUGGGCCAGGCAGGCAUCAAAAGAAAUAGUCUUGCGCUCAACCAGAAAGUCUGUAUUCAUUAUAAGGGUA [A11G A126U U132A] here?
A: Its self-cleavage is 0.62.

Q: Which self-cleavage does the source give for GUUAACGGUCGUAGGCCAUGGAAACUAGGAGCACCAUUUCGCUGCCAGUGAAGAAAUGAACAAAGAAAAUCUGGGCCAGGCAGGCAUCAAGAGAAAUAGUCUUGCGCUCAGCCAGAAAGUCUGUAAUCAUUUUAAGGGUA [A11G A91G A111G] here?
A: The self-cleavage was 0.03.

Q: For GUUAACGGUCGUAGGCCAUGGAAACUAGGAGCACCAUUUCGCUGCCAGUGAAGAAAUGAACAAAGAAAAUCUGGGCCGGGCAGGCAUCAAAAGAAAUAGUCUUGCGCUCAACCAGUAAGUCUGUAAUCAUUUUAAGGGUA [A11G A78G A116U], which self-cleavage is on record?
A: The self-cleavage was 0.05.

Q: With GUUAACGGUCGUAGGCCAUGGAAACUAGGAGCACCAUUUCGCUGCCAGUGAAGAAAUGAACAAAGAAAAUCUGGGCCAGGCGGGCAUCAAAAGAAAUAGUCUUGCGCUCAACCAGAAAGUCUGUAAUCGUUUUAAGGGUA [A11G A82G A129G] as the variant, how does the self-cleavage read?
A: Its self-cleavage is 0.25.

Q: For GUUAACGGUCGUAGGCCAUGGAAACUAGGAGCACCAUUUCGCUGCCAGUGAAGAAAUGAACAAAGAAAAUCUGGGCCAGGCAGGCAUCAAAAGAAAUAGUCUUGCGCUCAACCUGCAAGUCUGUAAUCAUUUUAAGGGUA [A11G A114U A116C], which self-cleavage is on record?
A: Its self-cleavage is 0.01.

Q: For GUUAACGGUCGUAGGCCAUGGAAACUAGGAGCACCAUUUCGCUGCCAGUGAAGAAAUGAACAAAGAAAUUCUGGGCCAGGCAGGCAUCAAAAGAAAUAGUCUUGCGCUCAACCAGAGAGUCUGUAAUCAUUUUAAGGGUA [A11G A69U A117G], which self-cleavage is on record?
A: The self-cleavage was 2.31.

Q: With GUUAACGGUCGUAGGCCAUGGAAACUAGGAGCAUCAUUUCGCUGCCAGUGCAGAAAUGAACAAAGAAAAUCUGGGCCAGGCAGGCAUCAAAAGAAAUAGUCUUGCACUCAACCAGAAAGUCUGUAAUCAUUUUAGGGGUA [A11G C34U A51C G106A A135G] as the variant, how does the self-cleavage read?
A: The self-cleavage was 0.01.

Q: For GUUAACGGUCGUAGGCCAUGGAAACUAGGAGCACCAUUUCGCUGCCAGUGAAGAAAUGAACAGAGAAAAUCUGGGCCAGGCAAGCAUCAAAAGAAAUAGUCUUGCGCUCAACCAGAAAGUCUGUAAUCAUUUUAAGGGUA [A11G A63G G83A], which self-cleavage is on record?
A: The self-cleavage was 0.88.

Q: For GUUAACGGUCGUAGGCCAUGGAAACUAGGAGCACCAUUUCGCUGCCAGUGAAGAAAUGAACAAAGAAAAUCUGGGCCAGGCAGGCAUCAAGAGAGAUAGUCUUGCGCUCAACCAGAAAGUCUGUAAUCGUUUUAAGGGUA [A11G A91G A95G A129G], which self-cleavage is on record?
A: Its self-cleavage is 1.17.

Q: With GUUAACGGUCGUAGGCCAUGGAAACUAGGAGCACCAUUUCGCUGCCAGUGAAGAAAUGAACAAGGAGAAUCUGGGCCAGGCAGACAUCAAGAGAAAUAGUCUUGCGCUCAACCAGAAAGUCUGUAAUCAUUUUAAGGGUA [A11G A64G A67G G84A A91G] as the variant, how does the self-cleavage read?
A: The self-cleavage was 1.54.

Q: With GUUAACGGUCGUAGGCCAUGGAAACUAGGAGCACCAUUUCGCUGCCAGUGAAGAAAUGAACAAAGAAGAUCUGGGCCAGGCAGGCAUCAAAAGAAAUAGUCCCGCGCUCAACCAGAAAGUCUGCAACCAUUUUAAGGGUA [A11G A68G U102C U103C U124C U127C] as the variant, how does the self-cleavage read?
A: The self-cleavage was 0.05.

Q: Which self-cleavage does the source give for GUUAACGGUCGUAGGCCAUGGAAACUAGGAGCACCAUUUCGCUGCCAGUGAAGAAAUGAACAAAGAAAAUCUGGGCCAGGCAGGCAUCAAAAGAAAUAGUCUUGCGCUCAACCAGAAAGUCUGUAGUCACUUUAAGGGUA [A11G A126G U130C] here?
A: Its self-cleavage is 0.38.

Q: Which self-cleavage does the source give for GUUAACGGUCGUAGGCCAUGGAAACUAGGAGCAUCAUUUCGCUGCCAGUGAAGAAAUGAACAAAGAAAAUCUGGGCCAGGCAGGCAUCAAAAGAAGUAGUCUUGCGCUCAACCAGAAAGUCUGUAAUCGCUUUAAGGGUA [A11G C34U A96G A129G U130C] here?
A: Its self-cleavage is 1.27.

Q: With GUUAACGGUCGUAGGCCAUGGAAACUAGGAGCACCAUUUCGCUGCCAGUGAAGAAAUGAACAAAGAAAAUCUGGGCCAGGCAGGCAUCAAAAGAACUAGUCUUGCGCUCAACCAGAAAGUCUGUAAACAUUUUAAGGGUA [A11G A96C U127A] as the variant, how does the self-cleavage read?
A: Its self-cleavage is 1.87.

Q: For GUUAACGGUCGUAGGCCAUGGAAACUAGGAGCACCAUUUCGCUGCCAGUGAAGAAAUGAACAAAGAAAAUCUGGGCCAGGCAGGCAUCGAAAGAAAUAGUCUUGCGCUCAACCAGAAAGUCUGUAAUCAUCUUAAGGGUA [A11G A89G U131C], which self-cleavage is on record?
A: The self-cleavage was 0.69.

Q: Which self-cleavage does the source give for GUUAACGGUCGUAGGCCAUGGAAACUAGGAGCACCAUUUCGCUGCCAGUGAAGAAAUGAACAAAGAAGAUCUGGGCCAGGCAGGCACCAAAAGAAAUAGUCUUGCGCUCAACCAGAAAGUCUGUAAUCAUUUUAAGGGUA [A11G A68G U87C] here?
A: The self-cleavage was 1.29.

Reference: the RNAGym collection of RNA variant scans (doi:10.7554/elife.90254)
